Source: the supplement of paper PMC8728848
The list shows a part of the results.

How the values were obtained:
Assay in all cases: glycan array binding signal (z-score within array); higher = stronger binding
Details in all cases: glycan notation: IUPAC condensed, linker removed
[1] = biological target: GlcNAc(b1-3)Gal(b1-4)GlcNAc(b1-3)Gal(b1-4)GlcNAc(b1-3)GalNAc
Summary of the method: (§1)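 Negative Z-scores can be read as non-binding. The Z-score is calculated within each array and then averaged across arrays of one protein sequence at different concentrations or buffers and across linkers. Arrays, 3228 in all, were curated from the Consortium for Functional Glycomics database and kept only where the protein sequence was available.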

[2] = biological target: GlcNAc(b1-3)Gal(b1-4)GlcNAc(b1-3)GalNAc
Summary of the method: as §1

[3] = biological target: GlcNAc(b1-3)Gal(b1-4)GlcNAc(b1-3)[GlcNAc(b1-3)Gal(b1-4)GlcNAc(b1-3)]GalNAc
Summary of the method: as §1

[4] = biological target: GlcNAc(b1-3)Gal(b1-4)GlcNAc(b1-6)[Gal(b1-3)]GalNAc
Summary of the method: as §1

[5] = biological target: GlcNAc(b1-3)Gal(b1-4)GlcNAc(b1-6)[GlcNAc(b1-3)Gal(b1-3)]GalNAc
Summary of the method: as §1

[6] = biological target: GlcNAc(b1-3)Gal(b1-4)GlcNAc(b1-6)[GlcNAc(b1-3)]Gal(b1-4)GlcNAc
Summary of the method: as §1

[7] = biological target: GlcNAc(b1-3)GalNAc
Summary of the method: as §1

[8] = biological target: GlcNAc(b1-3)Man
Summary of the method: as §1

[9] = biological target: GlcNAc(b1-3)[GlcNAc(b1-4)][GlcNAc(b1-6)]GlcNAc
Summary of the method: as §1

[10] = biological target: GlcNAc(b1-3)[GlcNAc(b1-6)]Gal(b1-4)GlcNAc
Summary of the method: as §1

[11] = biological target: GlcNAc(b1-3)[GlcNAc(b1-6)]GalNAc
Summary of the method: as §1

[12] = biological target: GlcNAc(b1-4)Gal(b1-4)GlcNAc
Summary of the method: as §1

[13] = biological target: GlcNAc(b1-4)GlcNAc
Summary of the method: as §1

[14] = biological target: GlcNAc(b1-4)GlcNAc(b1-4)GlcNAc
Summary of the method: as §1

[15] = biological target: GlcNAc(b1-4)GlcNAc(b1-4)GlcNAc(b1-4)GlcNAc(b1-4)GlcNAc
Summary of the method: as §1

[16] = biological target: GlcNAc(b1-4)GlcNAc(b1-4)GlcNAc(b1-4)GlcNAc(b1-4)GlcNAc(b1-4)GlcNAc
Summary of the method: as §1

[17] = biological target: GlcNAc(b1-4)[GlcNAc(b1-6)]GalNAc
Summary of the method: as §1

[18] = biological target: GlcNAc(b1-6)Gal(b1-4)GlcNAc
Summary of the method: as §1

[19] = biological target: GlcNAc(b1-6)GalNAc
Summary of the method: as §1

[20] = biological target: GlcNAc6S(b1-3)Gal(b1-4)GlcNAc
Summary of the method: as §1

[21] = biological target: Kdn(a2-3)Gal(b1-3)GalNAc
Summary of the method: as §1

[22] = biological target: Kdn(a2-3)Gal(b1-3)GlcNAc
Summary of the method: as §1

[23] = biological target: Kdn(a2-3)Gal(b1-4)Glc
Summary of the method: as §1

[24] = biological target: Kdn(a2-3)Gal(b1-4)GlcNAc
Summary of the method: as §1

[25] = biological target: Kdn(a2-3)Gal(b1-4)[Fuc(a1-3)]GlcNAc
Summary of the method: as §1

[26] = biological target: Kdn(a2-6)Gal(b1-4)GlcNAc
Summary of the method: as §1

[27] = biological target: Man(a1-2)Man(a1-2)Man(a1-3)Man
Summary of the method: as §1

[28] = biological target: Man(a1-2)Man(a1-2)Man(a1-6)[Man(a1-3)]Man
Summary of the method: as §1

[29] = biological target: Man(a1-2)Man(a1-3)Man
Summary of the method: as §1

[30] = biological target: Man(a1-2)Man(a1-3)[Man(a1-2)Man(a1-6)]Man
Summary of the method: as §1

[31] = biological target: Man(a1-2)Man(a1-3)[Man(a1-2)Man(a1-6)]Man(a1-6)[Man(a1-2)Man(a1-2)Man(a1-3)]Man
Summary of the method: as §1

[32] = biological target: Man(a1-2)Man(a1-3)[Man(a1-2)Man(a1-6)]Man(a1-6)[Man(a1-2)Man(a1-2)Man(a1-3)]Man(b1-4)GlcNAc(b1-4)GlcNAc
Summary of the method: as §1

[33] = biological target: Man(a1-2)Man(a1-3)[Man(a1-6)]Man(a1-6)[Man(a1-2)Man(a1-3)]Man(b1-4)GlcNAc(b1-4)GlcNAc
Summary of the method: as §1

[34] = biological target: Man(a1-2)Man(a1-6)[Man(a1-3)]Man(a1-6)[Man(a1-2)Man(a1-2)Man(a1-3)]Man
Summary of the method: as §1

[35] = biological target: Man(a1-2)Man(a1-6)[Man(a1-3)]Man(a1-6)[Man(a1-2)Man(a1-2)Man(a1-3)]Man(b1-4)GlcNAc(b1-4)GlcNAc
Summary of the method: as §1

[36] = biological target: Man(a1-3)[Man(a1-6)]Man
Summary of the method: as §1

[37] = biological target: Man(a1-3)[Man(a1-6)]Man(a1-6)[Man(a1-2)Man(a1-3)]Man(b1-4)GlcNAc(b1-4)GlcNAc
Summary of the method: as §1

B1: Cohesin-hDECTIN-1 (Homo sapiens) (protein)
chain: LDITSHHHHHHDDLDAVRIKVDTVNAKPGDTVRIPVRFSGIPSKGIANCDFVYSYDPNVLEIIEIEPGDIIVDPNPDKSFDTAVYPDRKIIVFLFAEDSGTGAYAITKDGVFATIVAKVKEGAPNGLSVIKFVEVGGFANNDLVEQKTQFFDGGVNVGDTTEPATPTTPVTTPTTTDDLDAASSSPCPPNWIIYEKSCYLFSMSLNSWDGSKRQCWQLGSNLLKIDSSNELGFIVKQVSSQPDNSFWIGLSRPQTEVPWLWEDGSTFSSNLFQIRTTATQENPSPNCVWIHVSVIYDQLCSVPSYSICEKKFM
[1]
  glycan array binding signal (z-score): -0.574
[2]
  glycan array binding signal (z-score): -0.397
[3]
  glycan array binding signal (z-score): -0.531
[4]
  glycan array binding signal (z-score): -0.318
[5]
  glycan array binding signal (z-score): -0.198
[6]
  glycan array binding signal (z-score): -0.293
[7]
  glycan array binding signal (z-score): -0.493
[8]
  glycan array binding signal (z-score): -0.449
[9]
  glycan array binding signal (z-score): 0.047
[10]
  glycan array binding signal (z-score): -0.577
[11]
  glycan array binding signal (z-score): -0.295
[12]
  glycan array binding signal (z-score): -0.292
[13]
  glycan array binding signal (z-score): -0.401
[14]
  glycan array binding signal (z-score): -0.385
[15]
  glycan array binding signal (z-score): -0.489
[16]
  glycan array binding signal (z-score): -0.328
[17]
  glycan array binding signal (z-score): -0.366
[18]
  glycan array binding signal (z-score): -0.367
[19]
  glycan array binding signal (z-score): 3.07
[20]
  glycan array binding signal (z-score): -0.342
[21]
  glycan array binding signal (z-score): -0.372
[22]
  glycan array binding signal (z-score): -0.537
[23]
  glycan array binding signal (z-score): -0.637
[24]
  glycan array binding signal (z-score): -0.545
[25]
  glycan array binding signal (z-score): -0.474
[26]
  glycan array binding signal (z-score): -0.471
[27]
  glycan array binding signal (z-score): 0.67
[28]
  glycan array binding signal (z-score): -0.33
[29]
  glycan array binding signal (z-score): -0.327
[30]
  glycan array binding signal (z-score): -0.432
[31]
  glycan array binding signal (z-score): -0.463
[32]
  glycan array binding signal (z-score): -0.206
[33]
  glycan array binding signal (z-score): -0.55
[34]
  glycan array binding signal (z-score): 0.045
[35]
  glycan array binding signal (z-score): -0.557
[36]
  glycan array binding signal (z-score): -0.41
[37]
  glycan array binding signal (z-score): -0.362
